Source: PubChem BioAssay AID485344 (National Center for Advancing Translational Sciences (NCATS), 2010)
Among all 340,000 compounds or so, about 6,900 (2%) were called active. Rule as the data show it: active = inhibition above about 30%; inactive = below that, where a call was filed. This is a selection; strong and weak results do not stand in their true shares. The source gives no active or inactive call for entries shown without one.

biological target: D(2) dopamine receptor (Homo sapiens) (UniProt P14416); experiment: HTS Assay for Allosteric Antagonists of the Human D2 Dopamine Receptor: Primary Screen for Antagonists; settings: HEK293 TREx D2 cells, calcium flux, dopamine EC80; at 10 µM; stronger effect = higher value; also: 0% is about no effect
Summary of the method: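 Overnight-induced (tetracycline, 30 C) HEK293 T-REx cells carrying force-coupled D2 receive a no-wash calcium dye, then compound, then EC80 dopamine at 180 s; signals are read kinetically throughout.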

Chain of UniProt P14416 (P14416 whole entry, looked up): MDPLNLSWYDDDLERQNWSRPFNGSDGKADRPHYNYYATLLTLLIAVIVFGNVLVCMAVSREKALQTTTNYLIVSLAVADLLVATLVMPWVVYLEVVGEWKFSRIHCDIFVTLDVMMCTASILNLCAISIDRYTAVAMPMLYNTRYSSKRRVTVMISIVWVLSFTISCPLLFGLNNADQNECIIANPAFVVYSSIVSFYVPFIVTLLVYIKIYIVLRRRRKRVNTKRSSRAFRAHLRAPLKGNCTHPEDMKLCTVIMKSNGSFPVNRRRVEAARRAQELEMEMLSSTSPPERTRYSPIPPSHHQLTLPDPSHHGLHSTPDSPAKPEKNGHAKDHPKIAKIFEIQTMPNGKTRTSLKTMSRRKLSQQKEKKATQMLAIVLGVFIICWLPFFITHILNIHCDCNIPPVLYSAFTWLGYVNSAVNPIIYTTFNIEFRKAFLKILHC

| Compound | inhibition |
| --- | --- |
| C#CCn1c(=NC(=O)c2ccc3c(c2)OCCO3)sc2cc(OC)c(OC)cc21 | -24.2% |
| Cc1ccc(S(=O)(=O)c2nnn3c2nc(NC(C)C)c2cc(Cl)ccc23)cc1C | 9.88% |
| CC1(C)N=C(SCc2ccccc2Cl)c2ccccc2N1 | -7.86% |
| Cc1cccc(-c2noc(-c3cccnc3NCc3ccc(Cl)cc3)n2)c1 | -20.2% |
| CCCCNC(=O)CSc1nc2n[nH]c(C)c2c(=N)n1-c1cccc(Cl)c1C | 11.7% |
| COc1ccc2c(c1)sc1ncc(C(=O)NCc3ccccc3F)c(=O)n12 | -3.28% |
| COc1ccc(S(=O)(=O)Nc2ccc3oc4c(c3c2)CCCC4)cc1 | 10.8% |
| Cc1sc2ncn(CC(=O)Nc3ccc(C(C)C)cc3)c(=O)c2c1S(=O)(=O)N1CCN(c2ncccn2)CC1 | 7.89% |
| CC(=O)N(c1ccccc1)c1nc(C)cc(C)c1C#N | active: 35.3% |
| CCOc1ccc(Nc2nc3c(S(=O)(=O)c4ccc(C(C)C)cc4)nnn3c3ccsc23)cc1 | -2.32% |
| CN(C(=O)COC(=O)C12CC3CC(CC(C3)C1)C2)c1c(N)n(Cc2ccccc2)c(=O)[nH]c1=O | active: 46.7% |
| COc1ccc(CCn2c3c(c(=O)[nH]c2=O)C(NC(=O)c2ccc(C(C)(C)C)cc2)(C(F)(F)F)C(=O)N3)cc1OC (centres undefined) | -8.85% |
| CC(=O)c1cc(-c2ccc(F)cc2)n(CC(=O)Nc2cc(C)cc(C)c2)c1C | -2.51% |
| Cc1ccc(C(C)C)c(OCCSc2nc3ccccc3n2CC(O)CO)c1 (centres undefined) | -2.97% |
| COc1ccccc1Cc1nc2ccccc2nc1SCC(=O)N1CCN(c2ccccc2)CC1 | 0.0416% |
| CC(C)Cn1c(-c2ccc(S(=O)(=O)N3CCOCC3)cc2)csc1=Nc1cc(Cl)ccc1Cl | -7.44% |
| COc1cccc(NC(=O)/C(C#N)=C/c2c(C)n(Cc3ccc(Cl)cc3)c3ccccc23)c1 | 3.4% |
| COC(=O)c1ccccc1NC(=O)c1cnc2c(-c3cccc(C)c3)c(C)nn2c1C | 19.1% |
| Cc1nc2ccn(Cc3cccnc3)c(=O)c2cc1C(=O)N1CCN(c2ccc(F)cc2)CC1 | -1.07% |
| CN(C)CCNc1oc(-c2ccc(COc3ccc(Cl)cc3)o2)nc1C#N | -14.9% |
| COc1ccc(N2CCN(Cc3nnc(-c4cccc(Br)c4)o3)CC2)cc1 | 1.36% |
| COc1ccc(CCNC(=O)C(C)n2c(=O)cc(C(F)(F)F)c3c(C)nn(C)c32)cc1OC (centres undefined) | 9.54% |
| Cc1cc(C)cc(Oc2nc3c(C)cccn3c(=O)c2/C=C(\C#N)c2nc3ccccc3s2)c1 | 5.74% |
| CCc1ccc(C(=O)c2cn(Cc3ccc(F)cc3)c3cc(OC)c(OC)cc3c2=O)cc1 | 14.2% |

| Compound | inhibition |
| --- | --- |
| CCS(=O)(=O)N1CC(=O)N(c2ccc(Cl)cc2)C(C)(C(=O)NC2CCCCCC2)C1 (centres undefined) | 9.34% |
| Cc1cccc(C(=O)N[C@H](C(=O)NCCc2ccc(Cl)cc2)C(C)C)c1 | active: 38.5% |
| Cc1nnc(NC(=O)CSCc2cc(=O)c3ccccc3[nH]2)s1 | 9.95% |
| CNC(=O)c1ccc(NC(=O)CC2SC(N3CCCC3)=NC2=O)cc1 (centres undefined) | active: 38.5% |
| CNCc1c(OCc2ccc(F)cc2)ccc2ccccc12 | active: 74.4% |
| COc1ccc(Cl)cc1NC(=O)C1CCN(C(=O)C2CC(=O)N(c3ccc(C)cc3)C2)CC1 (centres undefined) | active: 36.9% |
| COc1ccc(CCNC(=O)CCn2c(=O)c3ccccc3n(Cc3ccccc3)c2=O)cc1OC | -11% |
| Cc1ccc(CNC(=O)CNS(=O)(=O)c2cccs2)cc1 | 11% |
| CCCCCn1c(=O)[nH]c2cc(C(=O)N3CCN(c4cccc(C(F)(F)F)c4)CC3)ccc2c1=O | -3.39% |
| Cc1ccc(NC(=O)C2CCN(c3nn4cc(-c5ccc(C)cc5)nc4s3)CC2)cc1 | -9.96% |
| O=C(Nc1ccc(Br)cc1)C1CCCN1S(=O)(=O)c1ccc(F)cc1 (centres undefined) | -13% |
| CC(C)(C)c1ccc(C(=O)Nc2sc3c(c2C#N)CCC(C(C)(C)C)C3)cc1 (centres undefined) | -12% |
| COc1ccc(CNC(=O)c2oc3c(c2C)-c2nn(Cc4ccc(Cl)cc4)cc2CC3)cc1 | -13.7% |
| COc1ccc(OC)c2sc(N(Cc3cccnc3)C(=O)c3ccco3)nc12 | -6.66% |
| Cc1cc(NC(=O)CN2C(=O)c3cccnc3Sc3ccccc32)ccc1Br | -5.09% |
| CCc1ccccc1NC(=O)Nc1nnc(N(CC)c2ccccc2)s1 | 6.45% |
| Cc1ccc(CNC(=O)c2cc(-c3ccc(Cl)cc3)on2)cc1 | -8.55% |
| CCN1CCN(c2ncc3c(n2)CC(c2ccccc2O)CC3=O)CC1 (centres undefined) | 7.04% |
| Cc1ccc2oc(=O)c(S(=O)(=O)c3ccc(C(C)(C)C)cc3)cc2c1 | 18.4% |
| CC1CN(CCCCOc2ccc(Cl)c3ccccc23)CC(C)O1 (centres undefined) | active: 58.3% |
| Cc1nc2scc(C)n2c(=O)c1S(=O)(=O)NCCc1ccccc1 | -14.8% |
| CCOc1ccc(N(C)S(=O)(=O)c2ccc3[nH]cc(C(=O)NCc4ccccc4)c(=O)c3c2)cc1 | -8.93% |
| Cc1ccc(C(=O)c2cn(Cc3ccc(Cl)cc3)c3nc(C)ccc3c2=O)cc1 | -10.9% |
| COc1ccc(N2CCN(C(=O)CSc3n[nH]c(-c4ccccc4Cl)n3)CC2)cc1 | -14.6% |

| Compound | inhibition |
| --- | --- |
| Cc1cc(C)cc(N2C(=O)N(Cc3cccc(F)c3)c3ccccc3S2(=O)=O)c1 | -4.73% |
| Cc1ccc(C)c(CN2C(=O)c3ccccc3S(=O)(=O)c3ccc(C(=O)NCCC4=CCCCC4)cc32)c1 | 14.1% |
| Cc1cc(C)c(NC(=O)C(C)n2nnc3sc4c(c3c2=O)CCCC4)c(C)c1 (centres undefined) | 23.9% |
| CCCCCc1cc(=O)oc2c(C(CCN3CCN(c4ccccc4)CC3)c3ccc4c(c3)OCO4)c(OC)cc(OC)c12 (centres undefined) | active: 50.1% |
| COc1ccc(Nc2oc(-c3ccc(COc4ccccc4C)o3)nc2C#N)cc1 | -10.7% |
| CCN(C(=O)c1cc2c(=O)oc3ccc(C)cc3c2s1)c1ccccc1C | -14.4% |
| CCN(CC)S(=O)(=O)c1ccc2nc(NC(=O)c3cncc(Br)c3)sc2c1 | -28.5% |
| Cc1cccn2c(=O)c(C(=O)NC(C)c3ccccc3)cnc12 (centres undefined) | -9.04% |
| Cc1ccc(OCc2nc(-c3ccc(C(=O)NCc4ccc(OC(C)C)cc4)cc3)oc2C)cc1 | 4.01% |
| CC1CCCCN1C(=O)c1cc(-c2ccc(Br)cc2)on1 (centres undefined) | 20.9% |
| COc1ccc(C2N=C(N)Nc3nc4ccccc4n32)cc1 (centres undefined) | 0.106% |
| CC1=C(C(=O)N2CCN(c3cccc(Cl)c3)CC2)C2(CCCCC2)OC1=O | 6.51% |
| O=C(CN(c1ccc(Cl)c(C(F)(F)F)c1)S(=O)(=O)c1ccccc1)N1CCOCC1 | active: 34.9% |
| CCOC(=O)C1CCN(c2nc3c(S(=O)(=O)c4ccc(C)c(C)c4)nnn3c3ccc(Cl)cc23)CC1 | -2.18% |
| CC(C)(C)C1CCc2oc3ccc(NS(=O)(=O)c4ccc(C(=O)O)cc4)cc3c2C1 (centres undefined) | 21.6% |
| COc1ccc(Cn2c(SCC(=O)N(C)Cc3ccccc3)nc3ccccc32)cc1 | 0.478% |
| Cc1ccc(NC(=O)Cn2c(=O)nc(-c3ccccc3)c3ccccc32)cc1F | 0.428% |
| CN1CCc2c(sc3c2C(=O)NC(c2ccc(C(C)(C)C)cc2)N3)C1 (centres undefined) | 18.8% |
| O=C(Nc1cnc(N2CCN(c3ccccc3)CC2)c(C(=O)O)c1)c1cccs1 | 13.9% |
| Cc1cccc(-c2noc(-c3ccc(N4CCOCC4)c([N+](=O)[O-])c3)n2)c1 | -4.43% |
| CC1CCN(S(=O)(=O)c2ccc3c(ccc(=O)n3CC(=O)Nc3cccc(F)c3)c2)CC1 | -5.03% |
| CCN(Cc1ccccc1)S(=O)(=O)c1ccc(C(=O)Nc2nnc(-c3ccccc3OC)o2)cc1 | active: 41.6% |
| Cc1ccc(NC(=O)c2cc(S(=O)(=O)NCCc3ccc(Cl)cc3)ccc2F)cc1 | 0.527% |
| Cc1ccc2c(=O)cc(C(=O)Nc3ccc(S(=O)(=O)Nc4ncccn4)cc3)oc2c1C | -10% |

| Compound | inhibition |
| --- | --- |
| O=C(CSc1nc2c([nH]c3ccccc32)c(=O)n1-c1ccc(Cl)cc1)c1ccccc1 | -11.6% |
| Cc1cc(C)cc(NC(=O)Cn2cc(C(=O)C3CCCCC3)c3ccccc32)c1 | 11.6% |
| Cc1ccc2nc(COc3ccccc3NC(=O)c3ccc(F)cc3)cc(=O)n2c1 | 2.01% |
| COc1ccc(NCc2cccn2-c2nnc(N3CCCCC3)s2)cc1OC | 3.56% |
| Cc1cc(C)c(NC(=O)C2CCN(c3nn4c(=O)cc(C)nc4s3)CC2)c(C)c1 | 13.7% |
| O=C(c1ccco1)N1CCN(C(=O)C2CCN(S(=O)(=O)c3cnc[nH]3)CC2)CC1 | active: 51.6% |
| CCOc1ccc(NC(=O)c2c(NC(=O)Cc3ccccc3)sc3c2CCCCC3)cc1 | 1.1% |
| COc1ccccc1CNC(=O)c1cn(C)c2ccc(S(=O)(=O)N(C)C3CCCCC3)cc2c1=O | 1.62% |
| CCOc1ccc(NS(=O)(=O)c2ccc3c(c2)CCCN3C(=O)C2CCC2)cc1 | 17% |
| Cc1ccc(NC(=O)CSc2cn(CC(=O)N3CCCC3)c3ccccc23)cc1Cl | -7.96% |
| CCOC(=O)CSc1nc2c(sc3ccccc32)c(=O)n1CCO | 5.84% |
| Cc1cc(C)n(-c2ccc([N+](=O)[O-])cc2)n1 | active: 34.2% |
| Cc1csc2nc(COc3cccc(NC(=O)c4ccccc4F)c3)cc(=O)n12 | 10.8% |
| Cc1nn(CC(=O)N2CCN(c3ccc(Cl)cc3)CC2)c(=O)c2cccn12 | 20.3% |
| COc1ccc(OCC(O)Cn2c(NCCO)nc3c2c(=O)n(C)c(=O)n3C)cc1 (centres undefined) | -12.3% |
| COc1ccc(NC(=O)CSc2nc3c(oc4ccccc43)c(=O)n2Cc2ccco2)cc1Cl | 6.26% |
| COc1ccc(/C=C/C(=O)Nc2nc(-c3cccs3)ns2)cc1 | -5.67% |
| CC1CCN(S(=O)(=O)c2nnc(NC(=O)c3cccc(Cl)c3)s2)CC1 | 13.8% |
| Cc1ccc(CCNc2ncnc3onc(-c4ccc(Cl)cc4)c23)cc1 | 4.12% |
| COc1ccc(-c2nc(S(=O)(=O)c3ccc(Cl)cc3)c(NCc3ccccc3)o2)cc1 | 20% |
| COc1cc(-c2nc(Cn3nnc(C(=O)Nc4cccc(Cl)c4)c3C)c(C)o2)cc(OC)c1OC | 0.477% |
| Cc1ccc(-c2cn3c(n2)sc2cc(C(=O)NCCC4=CCCCC4)ccc23)cc1 | -26.4% |
